Measurements reported in PMC4336329 (PLoS ONE, 2015).
Among all 310,000 compounds or so, about 14,000 (4.5%) showed an effect of 50% or more. Effects have a minus sign here. The list shows a part of the results.

Target: human ether-à-go-go-related gene (hERG) potassium channel (human, UniProt Q12809)
Test: primary screen, population patch clamp on CHO cells stably expressing hERG
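Also: peak tail current of the secondary pulse compared with the same well before compound.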

Sequence of human ether-à-go-go-related gene (hERG) potassium channel (Q12809 whole entry, looked up): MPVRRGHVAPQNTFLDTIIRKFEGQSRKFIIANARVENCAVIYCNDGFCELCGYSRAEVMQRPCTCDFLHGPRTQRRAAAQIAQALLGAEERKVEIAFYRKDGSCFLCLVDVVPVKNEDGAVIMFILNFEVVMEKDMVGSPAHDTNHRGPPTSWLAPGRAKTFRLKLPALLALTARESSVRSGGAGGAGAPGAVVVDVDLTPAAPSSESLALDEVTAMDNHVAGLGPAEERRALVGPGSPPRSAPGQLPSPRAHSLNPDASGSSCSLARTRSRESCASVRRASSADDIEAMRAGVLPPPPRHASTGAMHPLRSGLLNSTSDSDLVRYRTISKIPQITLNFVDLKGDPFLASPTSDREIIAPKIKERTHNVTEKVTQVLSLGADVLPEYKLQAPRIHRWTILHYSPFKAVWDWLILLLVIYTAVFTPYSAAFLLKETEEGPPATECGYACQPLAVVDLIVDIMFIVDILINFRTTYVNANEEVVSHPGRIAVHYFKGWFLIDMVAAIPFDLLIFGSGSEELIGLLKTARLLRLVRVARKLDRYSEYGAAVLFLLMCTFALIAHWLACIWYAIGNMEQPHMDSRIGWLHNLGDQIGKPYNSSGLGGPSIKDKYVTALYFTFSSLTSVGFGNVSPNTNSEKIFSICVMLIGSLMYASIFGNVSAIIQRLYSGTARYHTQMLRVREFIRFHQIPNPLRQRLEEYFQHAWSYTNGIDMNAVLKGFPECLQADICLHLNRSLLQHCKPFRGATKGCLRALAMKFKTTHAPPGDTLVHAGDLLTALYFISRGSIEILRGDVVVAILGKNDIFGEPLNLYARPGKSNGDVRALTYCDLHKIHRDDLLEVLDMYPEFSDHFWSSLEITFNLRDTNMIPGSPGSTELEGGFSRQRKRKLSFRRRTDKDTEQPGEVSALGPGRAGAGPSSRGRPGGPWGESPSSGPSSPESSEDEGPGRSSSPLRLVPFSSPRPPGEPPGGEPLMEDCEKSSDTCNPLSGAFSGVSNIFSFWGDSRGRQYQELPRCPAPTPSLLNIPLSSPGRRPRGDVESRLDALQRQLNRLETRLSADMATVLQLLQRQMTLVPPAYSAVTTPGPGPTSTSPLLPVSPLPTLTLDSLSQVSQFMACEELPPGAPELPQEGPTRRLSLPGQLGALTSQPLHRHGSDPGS

Row | Compound | hERG current change (%, negative = inhibition) at 10uM [%]
1 | O=C(Oc1cncc(Cl)c1)c1sccc1Cl | -1.86
2 | Cc1ccc2c(c1)C(c1ccccc1)N(C(=O)c1ccc(S(=O)(=O)N3CCOCC3)cc1)CC(=O)N2 (centres unmarked) | -19.1
3 | CCCC(=O)N(C1CC(C)C(C#N)(C#N)C1(C#N)C#N)N(C)C (centres unmarked) | 3.69
4 | Cc1ccc(NC(=O)c2ccc(S(=O)(=O)Nc3c(C)n(C)n(-c4ccccc4)c3=O)cc2)nc1 | 6.9
5 | O=C(NN=C1CCC(c2ccccc2)CC1)c1cc2c(s1)CCCC2 (centres unmarked) | -0.679
6 | O=C(COc1ccc2c(C(F)(F)F)cc(=O)oc2c1)Nc1ccc2c(c1)OCCO2 | 2.49
7 | CC1Cn2c(nnc2-c2cccs2)S1 (centres unmarked) | 1.27
8 | CCOc1ccccc1C(=O)NCC(=O)OCCOc1cccc(Cl)c1 | -12.1
9 | C[C@@H](NC(=O)[C@@H]1Cc2ccccc2CN1C(=O)OC(C)(C)C)C(=O)NCc1ccco1 | 7.01
10 | Cc1cc(C)c(-c2cc(NC(=O)COC(=O)c3ccc(C#N)cc3)n(-c3ccccc3)n2)cc1C | -12.7
11 | O=C(CN1CCN(c2ccc(O)cc2)CC1)Nc1ccc2c(c1)OCCO2 | 2.24
12 | O=C(/C=C\Nc1ccc2c(c1)OCO2)c1cccs1 | 17.6
13 | Cc1noc(C)c1C(=O)OCC(=O)Nc1cccc(S(N)(=O)=O)c1 | 9.31
14 | COc1cc(OC)cc(-c2nnc(SCC(=O)Nc3cccc(C(=O)O)c3)s2)c1 | 5.77
15 | Clc1ccc(C2[C@H]3CN(CC4CCCCC4)[C@H](c4ccccc4)C34CC2(c2ccccc2)C4)cn1 (some centres unmarked) | 5.08
16 | O=C(CCCCCn1c(=O)[nH]c2ccsc2c1=O)N1CCCCC1 | -23.4
17 | COc1ccc(Cn2c(O)c(C=Nc3ccc(OC)cc3)c3ccccc3c2=O)cc1 | 2.23
18 | Cc1cc2cc3c(cc2nc1SCC(=O)N1CCN(C(=O)c2ccco2)CC1)OCO3 | -35.3
19 | COc1ccc(C(=O)N(C)CCCC2CCCC2)cc1OC1CCN(C(C)C)CC1 | -68.4
20 | CCOCCCNC(=S)Nc1ccc(Br)cc1Cl | 2.7
21 | CC(C)OP(=O)(OC(C)C)C(O)c1cccc([N+](=O)[O-])c1 (centres unmarked) | 1.7
22 | COc1ccc(/C=C/C(=O)c2ccc3c(c2)OCO3)cc1OC | -0.26

Row | Compound | hERG current change (%, negative = inhibition) at 10uM [%]
23 | N/C(=N\OC(=O)COc1ccc2ccccc2c1)c1ccccn1 | -1.39
24 | Cc1ccc(NC(=O)NCc2ccccn2)cc1 | 37.7
25 | COc1ccccc1C(=O)N1CCNC(=O)C1CC(=O)Nc1ccc(Cl)cc1 (centres unmarked) | 6.46
26 | CN(C)S(=O)(=O)c1ccc(N2CCCC2)c(C(=O)Nc2ccc(Br)cc2F)c1 | 3.03
27 | COc1cccc(NC(=O)Nc2cc(NC(=O)Nc3cccc(OC)c3)c(C)nc2C)c1 | 13.7
28 | CCCN(CC(=O)Nc1ccccc1C)C(=O)C1CCCN(C(=O)c2ccc(Cl)cc2)C1 (centres unmarked) | -35.1
29 | COc1ccc(Cn2nc(-c3ccccc3)c(N3CCCCC3)cc2=O)cc1 | -37.8
30 | CN(CC(=O)Nc1cccc(F)c1)C(=O)c1ccc(N2C(=O)c3ccccc3C2=O)cc1 | 2.22
31 | Cc1cccc(C(=O)NC2CC(C)(C)NC(C)(C)C2)c1 | 11.4
32 | O=Cc1cn(Cc2cccc(F)c2)c2ccccc12 | 2.72
33 | COc1cccc(-n2c(N)c(C#N)c3ccc([N+](=O)[O-])cc3c2=O)c1 | -8.42
34 | Cc1ccc(-c2nn3c(C)nnc3c3ccccc23)cc1S(=O)(=O)N(C)CCO | -30.6
35 | O=C(CSCc1ccc(Cl)cc1)Nc1ccc(O)cc1C(=O)O | 11.4
36 | CC(=O)CCC(=O)OCC(=O)c1ccc(C(F)(F)F)cc1 | 7.95
37 | Cc1[nH]c2ccccc2c1C(=O)COC(=O)c1ccc([N+](=O)[O-])s1 | 5.03
38 | N/C(=N\OC(=O)COc1cc(Cl)c(Cl)cc1Cl)c1ccncc1 | 9.49
39 | NC(=O)c1ccccc1NC(=O)NC1CCCCC1 | -6.68
40 | CC(=O)N1CCSc2ccc(S(=O)(=O)NCCc3cccc(C)c3)cc21 | -20.7
41 | COc1ccc(OC)c(C2=NS(=O)(=O)N(C)C(C(=O)Nc3ccc(C(C)=O)cc3)=C2)c1 | 5.6
42 | Cc1ccc(S(=O)(=O)Nc2cccc(CP(=O)(c3ccccc3)c3ccccc3)c2)cc1 | -8.1
43 | Oc1ccc(-c2nc3ccccn3c2NCc2ccco2)cc1 | -25.2
44 | NC(=O)C1CCN(C(=O)c2ccc(NC3=NC4CS(=O)(=O)CC4S3)cc2)CC1 (centres unmarked) | 15.8

Row | Compound | hERG current change (%, negative = inhibition) at 10uM [%]
45 | CCc1ccc(NC(=O)CCS(=O)(=O)c2ccc(Cl)cc2)cc1 | 6.96
46 | O=C(C1=NN(c2ccccc2)C(=O)CC1)N1CCc2ccccc2C1 | 16.7
47 | Cc1nc(N2N=C3/C(=C/c4ccc(F)cc4)CCCC3C2c2ccc(F)cc2)sc1C(=O)N(C)C (centres unmarked) | -7.27
48 | O=C(NCCCN1CCCC1=O)c1cccc(NS(=O)(=O)c2ccccc2)c1 | 5.2
49 | COc1ccccc1N(C)S(=O)(=O)c1ccc(C(=O)OCC(=O)NCCC2=CCCCC2)cc1 | -4.24
50 | CCC(C)NC(=O)C(NS(=O)(=O)c1ccc2c(c1)c(=O)n(C)c(=O)n2C)c1ccccc1 (centres unmarked) | -4.81
51 | COc1ccc(CNC(=O)C(C)N(Cc2ccccc2OC)C(=O)c2snc(C(N)=O)c2N)cc1 (centres unmarked) | 8.38
52 | Brc1ccc(OCCOc2cccc3cccnc23)cc1 | 17.4
53 | CN1CCN(NC(=O)COc2cccc(C(F)(F)F)c2)CC1 | 11.1
54 | CCCCn1c(=O)c(C(=O)NCc2ccncc2)c(O)c2ccccc21 | -44
55 | Cc1c(NC(=O)COC(=O)Cc2ccc(F)cc2)c(=O)n(-c2ccccc2)n1C | -14.2
56 | O=C(CCCCCNc1nc(=S)[nH]c2ccccc12)NCCc1ccc(Cl)cc1 | 9.51
57 | N#CCCn1cc(C(=O)Nc2ccccc2Cl)c(-c2ccc([N+](=O)[O-])cc2)n1 | -64.4
58 | O=S(=O)(c1ccc(Br)cc1)N1CCN(c2ccc3nnc(-c4ccccc4)n3n2)CC1 | -32
59 | O=C(CSc1nnc(-c2ccco2)n1CC1CCCO1)c1ccccc1 (centres unmarked) | -9.68
60 | Cc1cc(C)n2nc(C(=O)OCC(=O)Nc3ccc(C)c(S(=O)(=O)N(C)C)c3)nc2n1 | -11.6
61 | CC(=O)Nc1cc(OC(C)=O)c2nonc2c1OC(C)=O | -11.7
62 | CCN(CC(=O)NCc1ccc(F)cc1)C(=O)/C=C/c1cccs1 | -40.9
63 | COc1ccc(-c2nn(Cc3ccccc3)cc2C(=O)N2CCN(c3ncccn3)CC2)cc1 | -27
64 | Clc1ccccc1N/N=C/c1ccc2c(c1)OCO2 | 7.9
65 | Cc1ccsc1/C=N/N1CCN(c2ccccn2)CC1 | -8.96
66 | Cn1c(CC(=O)Nc2ccccc2)cc2ccccc21 | 20

Row | Compound | hERG current change (%, negative = inhibition) at 10uM [%]
67 | Brc1ccc(OCCCOc2cccc3cccnc23)cc1 | 6.35
68 | CC(C)=CCCC(C)CN1CCC(O)CC1 (centres unmarked) | -2.96
69 | COc1cccc(NC(=S)NC2CC(C)(C)NC(C)(C)C2)c1 | 3.98
70 | CC(C(=O)O)N(C(=O)c1ccccc1)c1ccc(F)cc1 (centres unmarked) | 30.2
71 | CC(C)(C)c1nnc(N/N=C/c2ccc(Br)cc2)n(N)c1=O | -6.3
72 | COc1ccc(N2CCN(S(=O)(=O)CCNC(=O)c3cc(=O)c4ccccc4o3)CC2)cc1 | 18.7
73 | CCOC(=O)c1cnc2c(-c3ccc(Cl)cc3)c(C)nn2c1N | 20.7
74 | Nc1ccc(N2CCCCC2)c2nonc12 | -39.3
75 | C=CCN1C(=O)C2C3C=CC(C2C1=O)C1C2C(=O)N(CC=C)C(=O)C2C31 (centres unmarked) | 10.5
76 | CNCC[C@H](Oc1cccc2ccccc12)c1cccs1.Cl | -36
77 | Cc1sc2ncn(CC(=O)NCCCC(=O)N3CCC(C)CC3)c(=O)c2c1C | 6.66
78 | Nn1c(Cc2cccc3ccccc23)nnc1SCc1c(F)cccc1Cl | -14.7
79 | Cc1occc1C(=O)N(C)Cc1nc(-c2ccc(Cl)cc2)no1 | 1.74
80 | CCOP(=O)(OCC)C(NC(=O)c1ccc(Cl)cc1)=C(Cl)Cl | 3.96
81 | O=C(O)c1cccc(S(=O)(=O)Nc2ccccc2Cc2ccccc2)c1 | 13.3
82 | COc1ccc(C2CC(c3ccccc3)=NN2C(=O)CCC(=O)O)cc1 (centres unmarked) | 8.77
83 | Cc1ccc(OCCNC(=O)C(=O)NCc2ccco2)cc1 | 25.7
84 | CCNC(=S)N/N=C1\C(=O)c2cccc3cccc1c23 | 16.7
85 | Cc1onc(-c2c(F)cccc2Cl)c1C(=O)O/N=C(\N)c1ccc([N+](=O)[O-])o1 | -16.8
86 | Cc1nc2c([nH]c3ccccc32)c(=O)n1N | 21.4
